{
  "source": "the supplement of paper PMC11876631",
  "parents": {"B1": {"name": "pgsA; numbered along this chain (parent)", "chain": "MQFNIPTLLTLFRVILIPFFVLVFYLPVTWSPFAAALIFCVAAVTDWFDGFLARRWNQSTRFGAFLDPVADKVLVAIAMVLVTEHYHSWWVTLPAATMIAREIIISALREWMAELGKRSSVAVSWIGKVKTTAQMVALAWLLWRPNIWVEYAGIALFFVAAVLTLWSMLQYLSAARADLLDQ"}, "B2": {"name": "fmt; numbered along this chain (parent)", "chain": "MSESLRIIFAGTPDFAARHLDALLSSGHNVVGVFTQPDRPAGRGKKLMPSPVKVLAEEKGLPVFQPVSLRPQENQQLVAELQADVMVVVAYGLILPKAVLEMPRLGCINVHGSLLPRWRGAAPIQRSLWAGDAETGVTIMQMDVGLDTGDMLYKLSCPITAEDTSGTLYDKLAELGPQGLITTLKQLADGTAKPEVQDETLVTYAEKLSKEEARIDWSLSAAQLERCIRAFNPWPMSWLEIEGQPVKVWKASVIDTATNAAPGTILEANKQGIQVATGDGILNLLSLQPAGKKAMSAQDLLNSRREWFVPGNRLV"}, "B3": {"name": "leuB; numbered along this chain (parent)", "chain": "MSKNYHIAVLPGDGIGPEVMTQALKVLDAVRNRFAMRITTSHYDVGGAAIDNHGQPLPPATVEGCEQADAVLFGSVGGPKWEHLPPDQQPERGALLPLRKHFKLFSNLRPAKLYQGLEAFCPLRADIAANGFDILCVRELTGGIYFGQPKGREGSGQYEKAFDTEVYHRFEIERIARIAFESARKRRHKVTSIDKANVLQSSILWREIVNEIATEYPDVELAHMYIDNATMQLIKDPSQFDVLLCSNLFGDILSDECAMITGSMGMLPSASLNEQGFGLYEPAGGSAPDIAGKNIANPIAQILSLALLLRYSLDADDAACAIERAINRALEEGIRTGDLARGAAAVSTDEMGDIIARYVAEGV"}},
  "note": "± gives the standard deviation of the averaged measurements. Laboratory Escherichia coli strains with one amino-acid change in an essential protein, pooled on minimal glucose agar with carbenicillin or gentamicin at twice the control MIC (plus kanamycin and chloramphenicol for the plasmids), 48 h. Fold change of barcode share against drug-free plates; higher = less susceptible. Active = above 20 in both replicates (the paper's putatively resistant). '<' = one read or none on drug, '>' = one read or none on a drug-free plate. Shares are relative, so most strains fall below 1 when a few take over. Listed are strains with at least 15 reads on both drug-free plates, and hits; most hits rest on fewer reference reads. Replicate rank correlation about 0.5. Edits are read from barcodes.",
  "data": [
    {"variants_of": "B1", "assay": "barcode share on antibiotic plates over drug-free plates; higher = less susceptible", "settings": "with Escherichia coli (laboratory strain); antibiotic: carbenicillin; 2× MIC (3.1 µg/mL)", "protocol": "(§1)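 A pool of E. coli strains, each edited to carry one amino-acid change in an essential protein, was grown for 48 h on minimal glucose agar with or without antibiotic; strain barcodes were sequenced; mean of two replicates.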", "values": [
      {"variant": "MQFNIPTLLTLFRVILIPFFVLVFYLPVTWSPFAAALQFCVAAVTDWFDGFLARRWNQSTRFGAFLDPVADKVLVAIAMVLVTEHYHSWWVTLPAATMIAREIIISALREWMAELGKRSSVAVSWIGKVKTTAQMVALAWLLWRPNIWVEYAGIALFFVAAVLTLWSMLQYLSAARADLLDQ", "fold change of barcode share": "0.226 ± 0.11"},
      {"variant": "MQFNIPTLLTLFRVILIPFFVLVFYLPVTWSPFAAALIACVAAVTDWFDGFLARRWNQSTRFGAFLDPVADKVLVAIAMVLVTEHYHSWWVTLPAATMIAREIIISALREWMAELGKRSSVAVSWIGKVKTTAQMVALAWLLWRPNIWVEYAGIALFFVAAVLTLWSMLQYLSAARADLLDQ", "fold change of barcode share": "0.189 ± 0.016"},
      {"variant": "MQFNIPTLLTLFRVILIPFFVLVFYLPVTWSPFAAALIQCVAAVTDWFDGFLARRWNQSTRFGAFLDPVADKVLVAIAMVLVTEHYHSWWVTLPAATMIAREIIISALREWMAELGKRSSVAVSWIGKVKTTAQMVALAWLLWRPNIWVEYAGIALFFVAAVLTLWSMLQYLSAARADLLDQ", "fold change of barcode share": "0.154 ± 0.036"}
    ]},
    {"variants_of": "B1", "assay": "barcode share on antibiotic plates over drug-free plates; higher = less susceptible", "settings": "with Escherichia coli (laboratory strain); antibiotic: gentamicin; 2× MIC (MIC 0.45 µg/mL)", "protocol": "as §1", "values": [
      {"variant": "MQFNIPTLLTLFRVILIPFFVLVFYLPVTWSPFAAALQFCVAAVTDWFDGFLARRWNQSTRFGAFLDPVADKVLVAIAMVLVTEHYHSWWVTLPAATMIAREIIISALREWMAELGKRSSVAVSWIGKVKTTAQMVALAWLLWRPNIWVEYAGIALFFVAAVLTLWSMLQYLSAARADLLDQ", "fold change of barcode share": "63.2 ± 64"},
      {"variant": "MQFNIPTLLTLFRVILIPFFVLVFYLPVTWSPFAAALIACVAAVTDWFDGFLARRWNQSTRFGAFLDPVADKVLVAIAMVLVTEHYHSWWVTLPAATMIAREIIISALREWMAELGKRSSVAVSWIGKVKTTAQMVALAWLLWRPNIWVEYAGIALFFVAAVLTLWSMLQYLSAARADLLDQ", "fold change of barcode share": "93.9 [active]"},
      {"variant": "MQFNIPTLLTLFRVILIPFFVLVFYLPVTWSPFAAALIQCVAAVTDWFDGFLARRWNQSTRFGAFLDPVADKVLVAIAMVLVTEHYHSWWVTLPAATMIAREIIISALREWMAELGKRSSVAVSWIGKVKTTAQMVALAWLLWRPNIWVEYAGIALFFVAAVLTLWSMLQYLSAARADLLDQ", "fold change of barcode share": "27.7 ± 36"}
    ]},
    {"variants_of": "B2", "assay": "barcode share on antibiotic plates over drug-free plates; higher = less susceptible", "settings": "with Escherichia coli (laboratory strain); antibiotic: gentamicin; 2× MIC (MIC 0.45 µg/mL)", "protocol": "as §1", "values": [
      {"variant": "MSESLRIIFAGTPDFAARHLDALLSSGHNVVGVFTQPDRPAGRGKKLMPSPVKVLAEEKGLPVFQPVSLRPQENQQLVAELQADVMVVVAYGLILPKAVLEMPRLGCINVHGSLLPRWRGAAPIQRSLWAGDAETGVTIMQMDVGLDTGDMLYKLSCPITAEDTSGTLYDKAAELGPQGLITTLKQLADGTAKPEVQDETLVTYAEKLSKEEARIDWSLSAAQLERCIRAFNPWPMSWLEIEGQPVKVWKASVIDTATNAAPGTILEANKQGIQVATGDGILNLLSLQPAGKKAMSAQDLLNSRREWFVPGNRLV", "note": "[L172A]", "fold change of barcode share": "< 0.0077"},
      {"variant": "MSESLRIIFAGTPDFAARHLDALLSSGHNVVGVPTQPDRPAGRGKKLMPSPVKVLAEEKGLPVFQPVSLRPQENQQLVAELQADVMVVVAYGLILPKAVLEMPRLGCINVHGSLLPRWRGAAPIQRSLWAGDAETGVTIMQMDVGLDTGDMLYKLSCPITAEDTSGTLYDKLAELGPQGLITTLKQLADGTAKPEVQDETLVTYAEKLSKEEARIDWSLSAAQLERCIRAFNPWPMSWLEIEGQPVKVWKASVIDTATNAAPGTILEANKQGIQVATGDGILNLLSLQPAGKKAMSAQDLLNSRREWFVPGNRLV", "note": "[F34P]", "fold change of barcode share": "< 0.0129"}
    ]},
    {"variants_of": "B2", "assay": "barcode share on antibiotic plates over drug-free plates; higher = less susceptible", "settings": "with Escherichia coli (laboratory strain); antibiotic: carbenicillin; 2× MIC (3.1 µg/mL)", "protocol": "as §1", "values": [
      {"variant": "MSESLRIIFAGTPDFAARHLDALLSSGHNVVGVFTQPDRPAGRGKKLMPSPVKVLAEEKGLPVFQPVSLRPQENQQLVAELQADVMVVVAYGLILPKAVLEMPRLGCINVHGSLLPRWRGAAPIQRSLWAGDAETGVTIMQMDVGLDTGDMLYKLSCPITAEDTSGTLYDKLAELGPQGLITTLKQLADGTAKPEVQDETLVTYAEKLSKEEARIDWSLSAAQLERCIRAFNPWPMSWLEIEGQPVKVWKASVIDTATNAAPGTILEANKQGIQVATGDGIWNLLSLQPAGKKAMSAQDLLNSRREWFVPGNRLV", "note": "[L282W]", "fold change of barcode share": "0.246 ± 0.032"},
      {"variant": "MSESLRIIFAGTPDFAARHLDALLSSGHNVVGVFTQPDRPAGRGKKLMPSPVKVLAEEKGLPVFQPVSLRPQENQQLVAELQADVMVVVAYGLILPKAVLEMPRLGCINVHGSLLPRWRGAAPIQRSLWAGDAETGVTIMQMDVGLDTGDMLYKLSCPITAEDTSGTLYDKLAELGPQGLITTLKQLADGTAKPEVQDETLVTYAEKLSKEEARIDWSLSAAQLERCIRAFNPWPMSWLEIEGQPVKVWKASVIDTATNAAPGTILEANKQGIQVATGDGILNALSLQPAGKKAMSAQDLLNSRREWFVPGNRLV", "note": "[L284A]", "fold change of barcode share": "0.244 ± 0.022"}
    ]},
    {"variants_of": "B3", "assay": "barcode share on antibiotic plates over drug-free plates; higher = less susceptible", "settings": "with Escherichia coli (laboratory strain); antibiotic: carbenicillin; 2× MIC (3.1 µg/mL)", "protocol": "as §1", "values": [
      {"variant": "V137Q", "fold change of barcode share": "1.75 ± 0.29"},
      {"variant": "V137W", "fold change of barcode share": "1.05 ± 0.54"},
      {"variant": "V137A", "fold change of barcode share": "0.48 ± 0.043"}
    ]},
    {"variants_of": "B3", "assay": "barcode share on antibiotic plates over drug-free plates; higher = less susceptible", "settings": "with Escherichia coli (laboratory strain); antibiotic: gentamicin; 2× MIC (MIC 0.45 µg/mL)", "protocol": "as §1", "values": [
      {"variant": "V137Q", "fold change of barcode share": "0.107 ± 0.04"},
      {"variant": "V137W", "fold change of barcode share": "0.0106 ± 0.012"},
      {"variant": "V137A", "fold change of barcode share": "0.0195 ± 0.017"}
    ]}
  ]
}
